Reference: the supplement of paper PMC4967469
By IC50 is meant the dose at which the fit gives 50% viability; fits outside the tested doses are given as limits. The AUC spans the tested range (256-fold, ending at the top dose) of the same fit; the more sensitive the line, the further below 1. For some assays here: The top dose, if marked as inferred, was derived from the fitted curves, not read from the paper.

Experiments:
Assay in all cases: Viability of human cancer cell lines after 72 h of drug (GDSC screen)
ZG-10 = compound: CN(C)C/C=C/C(=O)Nc1ccc(C(=O)Nc2cccc(Nc3nccc(-c4cccnc4)n3)c2)cc1 [ZG-10]; conditions: top dose 10 µM; top dose inferred
Method: (§1)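 Human cancer cell lines in 384-well plates, medium with 10% serum, drug for 72 h over a 256-fold dose range (nine 2-fold or five 4-fold steps up to the top dose). Adherent lines were fixed and stained with the nucleic acid dye Syto60, suspension lines read with resazurin; signal relative to control wells, capped at 0 and 100%. One two-parameter sigmoid per drug and line, fitted in a mixed model over all curves with the slope shared within a line.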

Tubastatin A = compound: CN1CCc2c(c3ccccc3n2Cc2ccc(C(=O)NO)cc2)C1 [Tubastatin A]; conditions: top dose 20 µM
Method: as §1

IPA-3 = compound: Oc1ccc2ccccc2c1SSc1c(O)ccc2ccccc12 [IPA-3]; conditions: top dose 32 µM; top dose inferred
Method: as §1

CI-1040 = compound: O=C(NOCC1CC1)c1ccc(F)c(F)c1Nc1ccc(I)cc1Cl [CI-1040]; conditions: top dose 10 µM; top dose inferred
Method: as §1

Rapamycin = compound: CO[C@H]1C[C@@H]2CC[C@@H](C)[C@@](O)(O2)C(=O)C(=O)N2CCCC[C@H]2C(=O)O[C@H]([C@H](C)C[C@@H]2CC[C@@H](O)[C@H](OC)C2)CC(=O)[C@H](C)/C=C(\C)[C@@H](O)[C@@H](OC)C(=O)[C@H](C)C[C@H](C)/C=C/C=C/C=C/1C [Rapamycin]; conditions: top dose 0.1 µM; top dose inferred
Method: as §1

Z-LLNle-CHO = compound: CCCC[C@@H](C=O)NC(=O)[C@H](CC(C)C)NC(=O)[C@H](CC(C)C)NC(=O)OCc1ccccc1 [Z-LLNle-CHO]; conditions: top dose 2.56 µM; top dose inferred
Method: as §1

XL-880 = compound: COc1cc2c(Oc3ccc(NC(=O)C4(C(=O)Nc5ccc(F)cc5)CC4)cc3F)ccnc2cc1OCCCN1CCOCC1 [XL-880]; conditions: top dose 5.12 µM; top dose inferred
Method: as §1

Temozolomide = compound: Cn1nnc2c(C(N)=O)ncn2c1=O [Temozolomide]; conditions: top dose 30 µM
Method: as §1

JW-7-52-1 = compound: CCC(=O)N1CCN(c2ccc(-n3c(=O)ccc4cnc5ccc(-c6cnc7ccccc7c6)cc5c43)cc2C(F)(F)F)CC1 [JW-7-52-1]; conditions: top dose 1.2 µM; top dose inferred
Method: as §1

Cell Line | AUC (ZG-10) | IC50 (ZG-10) [nM] | AUC (Tubastatin A) | IC50 (Tubastatin A) [nM] | AUC (IPA-3) | IC50 (IPA-3) [nM] | AUC (CI-1040) | IC50 (CI-1040) [nM] | AUC (Rapamycin) | IC50 (Rapamycin) [nM] | AUC (Z-LLNle-CHO) | IC50 (Z-LLNle-CHO) [nM] | AUC (XL-880) | IC50 (XL-880) [nM] | AUC (Temozolomide) | IC50 (Temozolomide) [nM] | AUC (JW-7-52-1) | IC50 (JW-7-52-1) [nM]
ES4 (Ewing sarcoma, adherent) | 0.638 | 1600 | 0.95 | > 20000 | 0.852 | 30600 | 0.846 | 8960 | 0.144 | 0.392 | 0.777 | 1190 | 0.672 | 1040 | 0.968 | > 30000 | – | –
H-EMC-SS (chondrosarcoma, adherent) | – | – | 0.958 | > 20000 | 0.83 | 28700 | – | – | 0.874 | > 100 | 0.945 | > 2560 | 0.402 | 159 | 0.979 | > 30000 | – | –
NTERA-2 cl.D1 (testis, adherent) | 0.489 | 584 | 0.575 | 2000 | 0.899 | > 32000 | 0.846 | 7160 | 0.213 | 0.908 | 0.697 | 569 | 0.577 | 518 | 0.908 | > 30000 | – | –
TC-YIK (cervix, suspension) | – | – | – | – | – | – | 0.842 | 5700 | 0.973 | > 100 | – | – | – | – | 0.97 | > 30000 | – | –
GB-1 (glioma, adherent) | 0.922 | > 10000 | 0.934 | > 20000 | 0.617 | 4460 | 0.915 | > 10000 | – | – | 0.721 | 768 | 0.434 | 205 | 0.952 | > 30000 | 0.303 | 18.8
EW-11 (Ewing sarcoma, adherent) | 0.721 | 3220 | 0.814 | 15100 | 0.867 | > 32000 | 0.905 | > 10000 | – | – | 0.978 | > 2560 | 0.506 | 335 | 0.978 | > 30000 | 0.92 | > 1200
HUTU-80 (digestive system, adherent) | 0.793 | 3730 | 0.905 | 18800 | 0.681 | 5800 | 0.847 | 5560 | – | – | 0.774 | 837 | 0.323 | 113 | 0.991 | > 30000 | 0.2 | 12
HCE-4 (oesophagus, adherent) | – | – | 0.992 | > 20000 | 0.783 | 11500 | – | – | 0.912 | > 100 | 0.73 | 642 | 0.97 | > 5120 | – | – | – | –
TE-8 (oesophagus, adherent) | 0.678 | 2040 | 0.985 | > 20000 | 0.873 | > 32000 | 0.822 | 6380 | – | – | 0.669 | 490 | 0.58 | 537 | 0.982 | > 30000 | 0.41 | 41.7
GR-ST (lymphoblastic leukaemia, suspension) | 0.537 | 808 | 0.799 | 12000 | 0.736 | 11100 | 0.781 | 5100 | – | – | 0.893 | > 2560 | 0.583 | 566 | 0.978 | > 30000 | 0.394 | 36.1
WIL2-NS (lymphoid neoplasm, suspension) | 0.753 | 2790 | 0.868 | 12800 | 0.569 | 2970 | 0.982 | > 10000 | – | – | 0.794 | 941 | 0.641 | 725 | 0.925 | > 30000 | 0.421 | 47.6
EW-16 (Ewing sarcoma, adherent) | 0.663 | 1820 | 0.943 | > 20000 | 0.744 | 10400 | 0.865 | 9510 | – | – | 0.807 | 1380 | 0.654 | 875 | 0.983 | > 30000 | 0.258 | 14.6
U-87-MG (glioma, adherent) | – | – | 0.973 | > 20000 | 0.951 | > 32000 | 0.861 | > 10000 | 0.88 | > 100 | 0.968 | > 2560 | – | – | – | – | – | –
TE-15 (oesophagus, suspension) | – | – | 0.972 | > 20000 | 0.75 | 11600 | 0.756 | 3840 | 0.326 | 1.91 | 0.791 | 1320 | 0.733 | 1630 | 0.963 | > 30000 | – | –
VAL (B-cell lymphoma, suspension) | 0.777 | 4040 | 0.722 | 5340 | 0.776 | 12800 | 0.961 | > 10000 | 0.916 | > 100 | – | – | 0.52 | 362 | 0.984 | > 30000 | – | –
EW-22 (Ewing sarcoma, adherent) | 0.671 | 1840 | – | – | – | – | 0.94 | > 10000 | 0.956 | > 100 | – | – | – | – | 0.987 | > 30000 | – | –
no-10 (glioma, adherent) | 0.692 | 2470 | 0.972 | > 20000 | 0.858 | > 32000 | 0.905 | > 10000 | – | – | 0.681 | 579 | 0.809 | 3440 | 0.975 | > 30000 | 0.288 | 16.3
TC-71 (Ewing sarcoma, adherent) | 0.586 | 1030 | 0.959 | > 20000 | 0.992 | > 32000 | – | – | 0.992 | > 100 | 0.974 | > 2560 | 0.629 | 679 | 0.992 | > 30000 | – | –
